Measured values from PubChem BioAssay AID588591 (National Center for Advancing Translational Sciences (NCATS), 2011).
Out of some 390,000 compounds screened, about 4,700 (1.2%) were called active. Inconclusive means that the source gave no clear call. Such entries were picked first, then a sample of the others. Calls come from the whole dose curve; as a rule, active = well fitted inhibition curve with a large enough effect; inconclusive = small, poorly fitted or top-dose-only effect, or another doubt; inactive = no such curve, though single readings can be large or run the other way. Potencies of inconclusive entries are doubtful fits and often do not repeat.

target: DNA polymerase eta (Homo sapiens) (UniProt Q9Y253); experiment: qHTS for Inhibitors of Polymerase Eta; conditions: recombinant Pol eta, fluorescent DNA replication assay; series mostly up to 114 µM
UniProt Q9Y253, sequence (Q9Y253 whole entry, looked up): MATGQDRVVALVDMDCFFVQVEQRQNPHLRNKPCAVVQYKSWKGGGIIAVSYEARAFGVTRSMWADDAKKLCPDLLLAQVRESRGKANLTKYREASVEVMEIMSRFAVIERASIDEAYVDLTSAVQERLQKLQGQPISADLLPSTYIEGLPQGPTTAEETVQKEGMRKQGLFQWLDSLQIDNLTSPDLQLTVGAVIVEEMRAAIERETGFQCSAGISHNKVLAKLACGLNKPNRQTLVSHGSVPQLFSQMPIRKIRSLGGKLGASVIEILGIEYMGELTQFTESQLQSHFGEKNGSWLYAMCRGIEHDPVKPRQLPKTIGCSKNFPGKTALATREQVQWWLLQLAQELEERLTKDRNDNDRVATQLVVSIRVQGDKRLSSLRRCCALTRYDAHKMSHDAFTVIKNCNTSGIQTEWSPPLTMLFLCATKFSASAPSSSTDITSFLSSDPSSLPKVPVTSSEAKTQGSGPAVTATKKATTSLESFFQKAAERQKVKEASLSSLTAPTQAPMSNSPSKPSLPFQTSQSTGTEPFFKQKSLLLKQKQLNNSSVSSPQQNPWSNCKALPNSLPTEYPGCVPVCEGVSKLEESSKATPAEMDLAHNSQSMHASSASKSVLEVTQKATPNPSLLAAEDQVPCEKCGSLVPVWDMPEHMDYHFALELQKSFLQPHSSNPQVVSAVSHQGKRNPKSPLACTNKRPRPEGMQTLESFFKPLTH
In short: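 Pol eta (10 nM) was preincubated with compounds for 15 min at room temperature, after which fluorescent replication substrate (50 nM final) was added to start the reaction. Fluorescence was read kinetically at 0 and 10 min.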
Potency is the fitted concentration of half-maximal effect; tags give direction and shape of the fitted curve.

Row | SMILES | Potency
1 | Cc1ccc2nc(/C(C#N)=C/c3ccc(-c4cccc([N+](=O)[O-])c4)o3)[nH]c2c1 | inconclusive: 3.16 µM [inhibitor, full curve, poor fit]
2 | O=C(Cn1cnc2sc3c(c2c1=O)CCCC3)NCC(=O)Nc1c(F)cccc1F | inactive
3 | COc1ccc([C@H]2CC(=O)C=C(c3cccc(C(C)C)c3)C2)cc1OC | inconclusive: 79.4 µM [inhibitor, partial curve, poor fit]
4 | Cc1nn(-c2ccccc2)c(OC(=O)c2cccs2)c1S(=O)(=O)c1ccccc1 | inconclusive: 100 µM [inhibitor, partial curve, poor fit]
5 | CCc1ccc(-n2nc(C)c3c(C)cc(=O)n(CC(=O)Nc4ccc(C(C)=O)cc4)c32)cc1 | inactive
6 | COCCNC(=S)N1CCN(C)CC1 | inconclusive: 89.1 µM [inhibitor, partial curve, poor fit]
7 | COC(=O)[C@@]1(Cc2ccc(F)cc2)[C@H]2c3cc(C(=O)N4CCCC4)n(Cc4ccc(C(F)(F)F)nc4)c3C[C@H]2CN1C(=O)c1ccccc1 | inconclusive: 70.8 µM [inhibitor, partial curve, poor fit]
8 | COc1ccc(-c2csc(NC(=O)CSc3nc(C)nc4sc(C(=O)O)c(C)c34)n2)cc1 | active: 22.4 µM
9 | Cc1ccc(CNc2ncnc3c2nnn3C)cc1 | inactive
10 | CCOc1cc(/C=N/Nc2nncc(-c3ccccc3)n2)ccc1O | inconclusive: 79.4 µM [inhibitor, partial curve, poor fit]
11 | COc1cc2c(C(=O)NCCN(C)C)cn(CC(C)C)c(=O)c2cc1OC | inconclusive: 89.1 µM [inhibitor, partial curve, poor fit]
12 | Cc1ccc2sc(C)[n+](CCO)c2c1 | inactive
13 | O=C(NCc1ccccc1Br)c1cnc2sc(N3CCCCCC3)nn2c1=O | inactive
14 | CNS(=O)(=O)c1cccc(C(=O)OCC(=O)Nc2ccc(OC)cc2[N+](=O)[O-])c1 | inconclusive: 79.4 µM [inhibitor, partial curve, poor fit]
15 | CCOCCCNC(=S)NCCCNc1nc2c(C)c(C)ccc2cc1C#N | inconclusive: 79.4 µM [inhibitor, partial curve, poor fit]
16 | O=C(NCCc1ccccc1Cl)c1sc2ncccc2c1-n1cccc1 | inactive
17 | CCOc1ccc(OCC(=O)OCC(=O)N2CCN(C(=O)c3ccco3)CC2)cc1 | inconclusive: 22.4 µM [inhibitor, single point]
18 | CCC(=O)N1c2ccccc2CC1C(=O)NCCc1ccccc1 (stereo unspecified) | inactive
19 | CC(C)c1cc(C(=O)NCc2ccco2)no1 | inconclusive: 28.2 µM [inhibitor, full curve]
20 | Cc1nn(Cc2c(F)cccc2Cl)c(=O)c2ccccc12 | inconclusive: 89.1 µM [inhibitor, partial curve, poor fit]
21 | Cc1ccc(NC(=O)COC(=O)Cn2nc(-c3ccc(F)cc3)oc2=O)cc1C | inconclusive: 5.62 µM [inhibitor, full curve, poor fit]
22 | COc1ccc(/C=N/Nc2nn3cnnc3c3ccccc23)cc1 | inconclusive: 35.5 µM [inhibitor, partial curve, poor fit]

Row | SMILES | Potency
23 | COc1cc(NS(=O)(=O)c2ccc(NC(=S)NC(=O)c3ccccc3)cc2)nc(OC)n1 | inactive
24 | COc1cc(/C=C2/CCC/C(=C\c3cc(O)c(OC)c(Cl)c3)C2=O)cc(Cl)c1O | inconclusive: 89.1 µM [inhibitor, single point]
25 | CCc1ccc(OCC(=O)NNC(=O)c2ccc(NC(=O)C3CC3)cc2)cc1 | inconclusive: 20 µM [inhibitor, partial curve, poor fit]
26 | Cc1c(C(=O)O)sc(S(=O)(=O)N2CCN(C(=O)CC(C)c3ccccc3)CC2)c1C(=O)O (stereo unspecified) | inconclusive: 25.1 µM [inhibitor, full curve, poor fit]
27 | O=C(NCCc1ccccc1)C1CCC(Cn2c(=O)c3ccccc3n(Cc3cccnc3)c2=O)CC1 (stereo unspecified) | inconclusive: 28.2 µM [inhibitor, partial curve, poor fit]
28 | Cc1[nH][nH]c(=O)c1C(c1ccc(-c2ccc(C(=O)O)cc2)o1)c1c(C)[nH][nH]c1=O | inconclusive: 56.2 µM [inhibitor, partial curve, poor fit]
29 | Cc1ccc(C)c(Cn2c3ccccc3c3cnn(CC(=O)NC4CCC(C)CC4)c(=O)c32)c1 (stereo unspecified) | inactive
30 | O=C(O)c1ccc(NC2=C(Cl)C(=O)c3ccccc3C2=O)cc1 | inconclusive: 89.1 µM [inhibitor, partial curve, poor fit]
31 | O=C(O)C1Nc2c(O)cc(Cl)c([N+](=O)[O-])c2C2C=CCC12 (stereo unspecified) | active: 1.26 µM
32 | COc1cccc2sc3ccc(NCCC4CCCN4C)cc3c(=O)c12 (stereo unspecified) | inconclusive: 79.4 µM [inhibitor, partial curve, poor fit]
33 | COc1ccc(-c2oc3cc(O)c(OC)c(O)c3c(=O)c2OC)cc1O | inconclusive: 22.4 µM [inhibitor, partial curve, poor fit]
34 | Cc1cc2nn(-c3ccccc3)nc2cc1NC(=O)COc1ccc(Cl)cc1 | inactive
35 | COc1ccccc1C1CC(=O)Oc2cc(O)ccc21 (stereo unspecified) | inactive
36 | CC(=O)Nc1ccc(S(=O)(=O)NCCC(=O)N2CCN(C(c3ccccc3)c3ccccc3)CC2)cc1 | inactive
37 | O=[N+]([O-])c1ccccc1S(=O)(=O)Nc1ccc(-c2ccc(N3CCCC3)nn2)cc1 | active: 20 µM
38 | COc1ccc2c(c1)c(=Cc1ccc(N(C)C)cc1)c1cc(-c3ccccc3)[n+](C)n12 | inconclusive: 4.47 µM [inhibitor, full curve, poor fit]
39 | O=C(CSc1cccc[n+]1[O-])Nc1cc2c(cc1Cl)C(=O)c1ccccc1C2=O | inconclusive: 3.16 µM [inhibitor, full curve]
40 | C[n+]1cccc2c(Br)ccc([O-])c21 | active: 20 µM
41 | COc1ccc(NC(=O)CN2CCC(C(N)=O)(N3CCCCC3)CC2)c(OC)c1 | inconclusive: 79.4 µM [inhibitor, partial curve, poor fit]
42 | O=C(N/N=C/c1cc(Cl)ccc1O)c1ccncc1 | inconclusive: 100 µM [inhibitor, partial curve, poor fit]
43 | Cc1cccc(Oc2cc(NC(=O)c3ccccc3)cc([N+](=O)[O-])c2)c1 | inconclusive: 79.4 µM [inhibitor, partial curve, poor fit]
44 | Cc1ccc(CSCC2Nc3ccc(C(=O)N4CCN(c5ccc(F)cc5)CC4)cc3NC2=O)cc1 (stereo unspecified) | inconclusive: 44.7 µM [inhibitor, partial curve, poor fit]

Row | SMILES | Potency
45 | Cc1ccccc1C(=O)NC(CC(C)C)C(=O)OCc1cc(=O)n2cc(Br)ccc2n1 (stereo unspecified) | inactive
46 | Cc1csc2nc(SCC(=O)N3CCN(c4ccccc4)CC3)[nH]c(=O)c12 | inconclusive: 89.1 µM [inhibitor, single point]
47 | COc1cc(/C=C2\C(=O)NN(c3ccc(C)cc3)C2=O)cc([N+](=O)[O-])c1O | active: 22.4 µM
48 | O=C(Cc1ccc(-n2cccc2)cc1)NC1CCCCC1 | inconclusive: 28.2 µM [inhibitor, single point]
49 | O=C1NN(c2ccccc2)C(=O)/C1=C\c1cccn1-c1ccc(Cl)c([N+](=O)[O-])c1 | active: 20 µM
50 | CC(NO)C(C)(C)NO (stereo unspecified) | inactive
51 | CN(C)C(=O)Nc1ccccc1CC[N+](=O)[O-] | inactive
52 | Cn1c(=O)c(=O)n(C)c2cc(S(=O)(=O)N3CCN(c4ccc(F)cc4)CC3)ccc21 | inconclusive: 31.6 µM [inhibitor, partial curve, poor fit]
53 | O=S(=O)(NCc1ccc(F)cc1)c1ccc(Br)cc1Br | inconclusive: 89.1 µM [inhibitor, partial curve, poor fit]
54 | Cc1ccc(S(=O)(=O)N2CCCc3cc(NS(=O)(=O)c4cc(F)ccc4F)ccc32)cc1 | inactive
55 | CS(=O)(=O)c1ccc(-c2sc3ccccc3c2C(=O)N2CCN(c3ccc(F)cc3)CC2)cc1 | inconclusive: 3.16 µM [inhibitor, full curve, poor fit]
56 | NC(=O)c1ccsc1NC(=O)COC(=O)c1ccncc1 | inactive
57 | CCCCC1(C)OC(=O)C(=Cc2ccc(-c3ccc(Cl)c(C(=O)O)c3)o2)C(=O)O1 (stereo unspecified) | active: 20 µM
58 | CCc1ccc(CCC(=O)N2CCN(S(=O)(=O)c3sc(C(=O)O)c(C)c3C(=O)O)CC2)cc1 | inconclusive: 22.4 µM [inhibitor, partial curve, poor fit]
59 | CCOC(=O)C1=C(O)/C(=C\c2cc(C)n(-c3ccccc3F)c2C)N=C1C | inconclusive: 20 µM [inhibitor, partial curve, poor fit]
60 | COc1ccccc1NC(=O)COC(=O)c1ccc([N+](=O)[O-])s1 | inconclusive: 50.1 µM [inhibitor, partial curve]
61 | CCCCCCCCCCCCC/C=C/[C@@H](O)[C@@H](N)CO | inconclusive: 35.5 µM [inhibitor, single point]
62 | CCOC(=O)c1c(C)oc2c(F)c(F)c(F)c(F)c2c1=O | inconclusive: 12.6 µM [inhibitor, partial curve, poor fit]
63 | CC(C)(O)P(=O)(O)CCc1ccccc1 | inactive
64 | O=C(Nc1ccc(Br)cc1Br)c1cccc2c1C(=O)N(C1CCCCC1)C2 | inactive
65 | CSCc1c(C(=O)OCC(=O)c2ccc[nH]2)oc2ccccc12 | inconclusive: 12.6 µM [inhibitor, partial curve]
66 | N#CC(C#N)=C(N)/C(C#N)=C/c1cc(O)c(O)c(O)c1 | inconclusive: 56.2 µM [inhibitor, partial curve, poor fit]
